# Assay results from PubChem BioAssay AID445 (National Center for Advancing Translational Sciences (NCATS), 2006).
# In all, about 110,000 compounds went through this assay and about 40 (0.04%) were called active. This list was built around the results that the source calls inconclusive (neither active nor inactive); the mix of calls is not that of the screen. Calls follow the shape of the dose curve; as a rule, active = well fitted curve in the direction sought with a large enough effect in the signal ratio (not every such curve was filed as active); inconclusive = small, poorly fitted or top-dose-only effect, or a change in a side signal; inactive = flat fitted curve, though single readings scatter; the % refers to the signal ratio. Where the call is inconclusive, the potency comes from a doubtful curve fit.
# Experiment: IkB Signaling;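 as to IkBa stabilization activation: 0% = basal untreated cells and 100% = reference inhibitor full response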
# Conditions: ABC-DLBCL IkBa-CBG/CBR dual luciferase ratio (green luciferase fused to IkBa over red control in OCI-Ly3 lymphoma cells), 4 h; IkBa stabilization activation: at 57.1 µM (top of the series), scaled: untreated 0%, proteasome inhibitor 100% unless noted
# How it was run: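 Curves were fitted separately to fusion (green), unfused (red) and ratio luminescence, then classed by r2, magnitude and activity. Cells: OCI-Ly3, 4 h compound plus doxycycline at 37C; 10 uM MG-132 defined full response.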
# Potency is read from the fitted curve at half-maximal effect.
Structure (SMILES),IkBa stabilization activation,Potency
COc1ccc(CNC(=O)C(c2cccs2)N(C(=O)c2csnn2)C2CC2)cc1 (configuration not stated),inconclusive: 0.0469%,–
Cc1ccc2oc(C(=O)Nc3cccc(Cl)c3)cc(=O)c2c1,inactive: -1.54%,–
COc1ccccc1C(=O)Nc1ccccc1OCc1cc(=O)n2ccccc2n1,inconclusive: -0.507% [signal inhibitor],–
Cc1cccc2cc(C#N)c(N3CCN(C)CC3)nc12,inactive: -0.811%,–
O=C(Nc1ccc(F)cc1)c1csc2c1CCCCC2,inactive: -0.099%,–
O=C(c1ccccc1OCc1ccccc1Br)N1CCN(c2ncccn2)CC1,inactive: -0.128%,–
Cc1ccc(C2Nc3ccccc3-c3nc4ccccc4n32)o1 (configuration not stated),inactive: -0.872%,–
COc1ccc(CNc2nc3c(-c4ccccc4)nnn3c3ccccc23)cc1,–,"inconclusive: 2510 nM [signal inhibitor, full curve]"
Cc1cc(C)c2c(N)c(C(=O)N3CCN(c4ncccn4)CC3)sc2n1,inactive: -0.294%,–
CCNc1nc(NCc2ccc(F)cc2)c2cnn(C)c2n1,inconclusive: 0.857% [signal inhibitor],–
O=c1c(-c2ccccc2)n[nH]c2ccccc12,inactive: -0.189%,–
COc1ccc(C(=O)NC(=O)Nc2cc(C)ccn2)cc1,inactive: 12.2%,–
O=S(=O)(NCCS(=O)(=O)N1CCN(c2ccccc2)CC1)c1ccc(Br)cc1,inconclusive: -3.36% [signal inhibitor],–
CCOC(=O)C1CCN(C(=O)Cn2ncc3c4ccccc4n(Cc4ccccc4F)c3c2=O)CC1,inconclusive: 3.92% [signal inhibitor],–
CCN(C(=O)c1cccn(Cc2ccccc2C)c1=O)c1ccccc1,inconclusive: 1.19% [signal inhibitor],–
CCc1nc(OCc2ccco2)c2sc3nc4c(cc3c2n1)COC(C)(C)C4,inconclusive: 10.7% [signal inhibitor],–
c1ccc(CNc2ncnc3c2cnn3-c2ccccc2)cc1,inactive: -1.75%,–
Cc1cccc(N2CCN(CCCNC(=O)c3sc4ncccc4c3-n3cccc3)CC2C)c1 (configuration not stated),inactive: 0.249%,–
COc1ccc(N2CCN(CC(=O)Nc3c(C)cc(C)cc3C)CC2)cc1,inconclusive: 2.77% [signal inhibitor],–
Cc1ccc(F)cc1NC(=O)c1ccc(Cn2nc(N3CCN(c4ccccc4)CC3)ccc2=O)o1,inconclusive: 9.02% [signal inhibitor],–
COc1ccccc1S(=O)(=O)Cc1ccc(C(=O)N2CCN(c3cccc(Cl)c3)CC2)o1,inconclusive: -0.832% [signal inhibitor],–
Cc1cccc(NC(=O)C2CCN(S(=O)(=O)c3cccc4cccnc34)CC2)n1,inconclusive: 5.42% [signal inhibitor],–
